Measured values from article PMC2695464, “On the mechanism of autoinhibition of the RhoA-specific nucleotide exchange factor PDZRhoGEF” (BMC Structural Biology, 2009).
Changes are numbered by the printed parent chain. Numbers in names are those of the source.

Legend:
Assay in all cases: NMR titration; 1H-15N TROSY-HSQC (600 MHz) of isotope-labelled RhoA in complex with unlabelled PRG fragment; 0.2 to 0.3 mM protein, 200 mM MOPS/TRIS pH 7.5, 1 mM DTT, 25°C
Conditions in all cases: both partners purified
[1] = target: T1, PDZRhoGEF DH-PH tandem (PRG^712–1081) (human, UniProt O15085 712-1081)
T1 construct: full length is 1-1522; The His8 tag is called non-cleavable; Unlabelled in the spectra of labelled RhoA; also called isolated DH-PH tandem; source: E. coli BL21 (DE3) RIPL, purified (glutathione-Sepharose, rTEV cleavage, Ni-NTA); not shown: GST, N-terminal, cleaved; His8, C-terminal, kept
T1 sequence (looked up): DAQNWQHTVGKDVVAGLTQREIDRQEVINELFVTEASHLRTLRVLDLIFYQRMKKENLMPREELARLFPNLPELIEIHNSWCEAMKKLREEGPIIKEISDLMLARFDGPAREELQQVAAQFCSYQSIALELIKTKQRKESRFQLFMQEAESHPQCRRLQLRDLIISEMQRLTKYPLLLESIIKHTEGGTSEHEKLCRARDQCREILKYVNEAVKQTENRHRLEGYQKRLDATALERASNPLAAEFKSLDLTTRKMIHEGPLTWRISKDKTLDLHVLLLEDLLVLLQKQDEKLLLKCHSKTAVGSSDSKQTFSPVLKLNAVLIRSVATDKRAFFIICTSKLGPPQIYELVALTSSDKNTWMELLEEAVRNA

[2] = target: T2, PDZRhoGEF fragment PRG^672–1081 (human, UniProt O15085 672-1081)
T2 construct: The His8 tag is called non-cleavable; source: E. coli BL21 (DE3) RIPL, purified (glutathione-Sepharose, rTEV cleavage, Ni-NTA); not shown: GST, N-terminal, cleaved; His8, C-terminal, kept
T2 sequence (looked up): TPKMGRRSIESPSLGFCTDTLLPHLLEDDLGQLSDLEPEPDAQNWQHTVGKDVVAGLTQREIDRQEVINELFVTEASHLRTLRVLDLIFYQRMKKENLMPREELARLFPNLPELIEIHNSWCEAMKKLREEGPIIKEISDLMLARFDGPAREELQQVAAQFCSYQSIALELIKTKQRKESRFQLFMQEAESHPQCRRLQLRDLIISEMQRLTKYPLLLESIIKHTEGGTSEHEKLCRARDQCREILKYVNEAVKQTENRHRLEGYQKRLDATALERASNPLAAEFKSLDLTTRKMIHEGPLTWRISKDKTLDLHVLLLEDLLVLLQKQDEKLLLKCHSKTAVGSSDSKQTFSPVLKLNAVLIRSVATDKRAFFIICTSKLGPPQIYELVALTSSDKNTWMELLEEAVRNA

[3] = target: T3, PRG^4R: PRG^672–1081 with D706R, E708R, E710R, D712R (human, UniProt O15085 672-1081, D706R | E708R | E710R | D712R)
T3 construct: also called quadruple charge reversal mutant; source: E. coli BL21 (DE3) RIPL, purified (glutathione-Sepharose, rTEV cleavage, Ni-NTA); not shown: GST, N-terminal, cleaved; His8, C-terminal, kept
T3 sequence (looked up): T2 sequence (looked up) with D35R, E37R, E39R, D41R

Measured: binding result

B1: human RhoA^F25N ([…]) (domain or fragment)
chain: not shown
notes: RhoA, human, […], with the F25N mutation; 2H,15N- or 15N-labelled for the NMR spectra of the complexes; GDP-preloaded in the exchange assay; also called recombinant RhoA ([…]); source: expression and purification as described previously [45]
binds: all assays above
